# Assay results reported in the supplement of paper PMC3334620.
# The full ranking holds about 33,000 sequences; the median of “E-score (-0.5 to 0.5)” is about -0.016, and the highest 2% start at about 0.31. Some of the results follow.
# Molecular target: Cst6 (UniProt P40535)
# Test: PBM E-score (8-mer binding enrichment) (E-score (-0.5 to 0.5)); higher = stronger / more preferred TF binding; most listed sequences are background and not binding sites
# Details: protein concentration: 200 nM; construct: GST-DNA-binding domain
# Protocol: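 Universal 'all 10-mer' protein binding microarrays (Agilent AMADID 015681) probed with GST-tagged S. cerevisiae TFs (full-length or DBD) made by in vitro transcription/translation (PURExpress), about 100-200 nM. Bound TF was detected with fluorescent anti-GST. Each ungapped 8-mer (which stands for itself and its reverse complement) is scored by the PBM enrichment score (E-score), a modified Wilcoxon-Mann-Whitney statistic from -0.5 to +0.5, computed with the Universal PBM Analysis Suite. Scale: above 0.35 generally sequence-specific binding.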
row,Sequence,PBM E-score
1,GCATGCCA,-0.0954
2,CTGTTCAA,-0.0331
3,CACGCTTC,-0.182
4,CCCATTTC,-0.177
5,GTGCGCTA,-0.19
6,AAATAGCT,-0.00989
7,AAACGACT,-0.0754
8,CTATCATA,0.14
9,ATCTCTAG,-0.0621
10,ATACTTTA,0.172
11,CCGTCCCC,-0.289
12,CTGCATAC,0.00598
13,TAGACAAA,0.106
14,AATGTTCG,-0.0247
15,CCAGGCCA,-0.293
16,AACTCAAT,0.0395
17,AACAATGG,0.0543
18,GCGAATAC,0.043
19,CGGTACCC,-0.273
20,AACTGGCA,-0.0203
21,CCGCATGC,0.0138
22,CCCAGCAG,-0.203
23,CGTGTTAG,0.138
24,GCATGTTA,0.0834
25,GAAAGGTC,-0.196

row,Sequence,PBM E-score
1,ACTTGACG,0.237
2,ACCCTCTG,-0.156
3,CTTTGCGA,-0.0378
4,AAGGCCTA,-0.211
5,GAGAGGCC,-0.385
6,AATTGTGT,0.0931
7,GGTTGATA,-0.0494
8,CGCGCTTA,0.154
9,CATTTACA,0.218
10,CTAGTTTA,0.0239
11,AGGACGAG,-0.325
12,ACTCATAT,0.131
13,AAAGTGGA,0.0186
14,ATGAAATG,0.0988
15,GGCTGAAC,-0.141
16,GCGTCTTA,-0.118
17,CCGACACC,-0.303
18,AGGAAGTG,-0.122
19,GTACGTGA,0.108
20,ACGATGCC,0.00628
21,ATCAACAA,0.225
22,CTAAAGCC,-0.0993
23,ATAAGTTG,0.0246
24,ACGACGTA,0.3
25,ATACGGTG,0.104

row,Sequence,PBM E-score
1,AACTACCT,0.0258
2,CCGGTAAC,-0.0423
3,GCGCAACA,-0.0516
4,GCGGATAA,0.107
5,AACTCAGT,-0.0268
6,GACCAAAA,0.189
7,CCCGGGGC,-0.205
8,ATGTACAC,0.129
9,GAACCATC,-0.0588
10,CACGCGGA,0.192
11,CCCTGACG,0.0353
12,ATCTATAA,0.184
13,AAAGCATA,0.0739
14,GGGCTCCA,-0.307
15,CATATTCC,-0.184
16,CAGGTACA,-0.139
17,AACTACAC,0.16
18,CCGCCAAA,0.0155
19,CCACCCAG,-0.0877
20,TACACAAA,0.311
21,GCTCTTAA,0.0103
22,GGGGTAGA,-0.0523
23,CCTGTGAA,-0.00874
24,GTATGGAA,-0.0917
25,GATAGTCA,-0.0283

row,Sequence,PBM E-score
1,AATAGCTA,-0.0201
2,CTGACCAC,-0.0765
3,GCCAAGAC,-0.0294
4,ATTCGCCA,0.14
5,CTTCGAGC,-0.101
6,AAAATCTC,0.0464
7,ATGCTAAT,0.152
8,CATTAAAA,0.261
9,CGTGATGA,0.297
10,GAGCTTAC,-0.0468
11,GGAGGCCC,-0.275
12,CGCCGGGC,-0.123
13,AAGTCGCT,-0.157
14,CGGCTCAA,0.164
15,TCACCTCA,0.298
16,TATTGTAA,0.15
17,ATTGGCTG,-0.0847
18,GGATTCAC,-0.0944
19,AGGCCTCC,-0.321
20,GCTAACCA,-0.205
21,AGCCCTAG,-0.122
22,CCCGCTCC,-0.398
23,CAGGCACG,-0.00833
24,AGATTGGC,-0.177
25,AAGGCCGC,0.0764

row,Sequence,PBM E-score
1,GGTTGCGA,-0.0447
2,CGGGGTTA,-0.0616
3,AAGTTGCG,0.102
4,AATGTTGC,0.169
5,ATAGCAAT,0.19
6,CCCAGGGG,-0.252
7,ACAAGACT,-0.0794
8,GGTAGCCA,-0.187
9,AGAGCAGG,-0.0274
10,TATCGAGA,-0.00999
11,GCTAGAGA,-0.0439
12,AAAATAGG,0.0451
13,CCGGCGCC,0.14
14,GAGATGAA,-0.133
15,GAAAGACC,-0.212
16,CGACTCTC,-0.162
17,ACGGTTCG,-0.17
18,CTGTGTAA,0.177
19,TAGGGAAA,0.0127
20,AATCATAT,0.172
21,CAGGATAC,-0.0009
22,CTTTCATA,0.206
23,AAGCCTCC,-0.209
24,GTGACAAC,0.268
25,ACGTTCGA,0.0909

row,Sequence,PBM E-score
1,AAAATGTA,0.154
2,ATGACCAG,0.0388
3,AGATGAAC,0.0549
4,CTTGATTA,-0.0838
5,CTATATCA,0.189
6,GGTGGACA,-0.117
7,AAATTCGG,0.0235
8,ATAGAGTG,-0.0498
9,GAGACGAC,-0.228
10,CAAATTAC,0.225
11,CTTAGGAA,0.101
12,TGTTCAAA,0.0911
13,AGGTGTCA,0.102
14,GGGTGCGA,-0.156
15,CCATACAA,0.0991
16,AAAAATCA,0.222
17,GTTCAGGA,0.0305
18,CCGAAAAA,0.182
19,GACGTTAA,0.32
20,TCAACTAA,0.197
21,ACGATAGG,-0.125
22,AGAGTAAC,0.00715
23,GTCTGGCA,-0.322
24,AACTTAGG,-0.0689
25,AACAATCA,0.287

row,Sequence,PBM E-score
1,ATGAATTC,0.134
2,AAACCCAA,0.0909
3,CAATCACA,0.112
4,ATCATAGG,0.193
5,TGTGTAAA,0.283
6,ACCGTAGT,-0.163
7,CACTTTCC,-0.0474
8,ACCCGAAG,-0.21
9,GCGTTAGC,0.0351
10,ATACCGTA,0.0418
11,GTCGGGTA,-0.158
12,GGGTCTAA,-0.119
13,CTTAGATA,0.0873
14,ATGGCCAT,-0.292
15,AATCGCCT,0.172
16,CTGTTCGC,0.0664
17,GTTACTAA,0.171
18,GCCCACCC,0.114
19,CTGGGGTA,-0.226
20,GGCCTACA,-0.0987
21,CCGTACAG,0.0556
22,AAAATCGC,0.113
